According to US20060003020A1, “Anti-metastatic ability of mibefradil and gadolinium” (THE REGENTS OF THE UNIVERSITY OF MICHIGAN, priority 2004, published 2006):

Tested on: HT1080 cells
Assay: Microfluorometry of Ca^2+ spikes/oscillations in indo-1 labeled HT1080 cells

Row | Compound | changes in Ca^2+ spike frequency or amplitude (15 μM) | changes in Ca^2+ spike frequency or amplitude (1 μM)
1 | COc1ccc(CCCOC(Cn2ccnc2)c2ccc(OC)cc2)cc1 (centres unmarked) [SKF96365] | No changes | 
2 | COc1ccc([C@@H]2Sc3ccccc3N(CCN(C)C)C(=O)[C@@H]2OC(C)=O)cc1 [diltiazem] |  | No changes
